The campaign covered roughly 110,000 compounds. About 230 (0.21%) showed an effect of 50% or more. Some of the results follow.
Target: DPAP1 (Plasmodium falciparum, UniProt Q8IIJ9)
Assay: primary screen, percent inhibition; read by cleavage of a fluorogenic dipeptide substrate; higher = more effect of the substance
Design: species or system P. falciparum D10 trophozoite lysates; single well
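Further: 30 min substrate incubation versus DMSO and 10 µM JCP410 controls.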

Chain of DPAP1 (Q8IIJ9 whole entry, looked up): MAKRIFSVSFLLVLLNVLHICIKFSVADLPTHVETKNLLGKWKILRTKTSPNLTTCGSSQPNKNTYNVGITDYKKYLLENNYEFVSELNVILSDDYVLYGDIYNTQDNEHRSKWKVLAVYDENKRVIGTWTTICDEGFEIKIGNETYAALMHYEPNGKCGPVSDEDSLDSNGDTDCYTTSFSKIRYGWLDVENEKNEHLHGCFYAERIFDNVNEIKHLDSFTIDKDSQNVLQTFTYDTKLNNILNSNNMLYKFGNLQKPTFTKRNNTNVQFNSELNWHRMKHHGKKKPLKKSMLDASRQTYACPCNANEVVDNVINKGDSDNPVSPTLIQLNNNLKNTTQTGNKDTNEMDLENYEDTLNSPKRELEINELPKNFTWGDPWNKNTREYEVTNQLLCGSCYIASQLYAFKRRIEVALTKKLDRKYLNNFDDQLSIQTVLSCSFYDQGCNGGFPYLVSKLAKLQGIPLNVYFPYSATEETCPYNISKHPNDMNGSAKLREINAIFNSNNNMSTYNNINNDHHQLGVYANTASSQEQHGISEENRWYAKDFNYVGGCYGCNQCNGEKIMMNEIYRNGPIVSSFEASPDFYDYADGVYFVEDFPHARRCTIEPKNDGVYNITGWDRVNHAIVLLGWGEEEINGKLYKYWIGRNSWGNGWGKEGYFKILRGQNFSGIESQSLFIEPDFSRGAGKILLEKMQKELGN

SMILES	% Inhibition @ 10 uM
CCCCNC(=O)Cn1ccc2cc(S(=O)(=O)N3CCC(C)CC3)ccc21	-6.22%
Oc1oc(-c2ccc(Cl)cc2)nc1/C=N/c1ccc(Cl)cn1	1.25%
COc1ccc(-n2c(C)c(C(C)=O)c3cc(OC)ccc32)cc1	-0.0938%
COc1ccccc1-c1c(C)nn2c(SCC(=O)N3CCCC3)cc(C)nc12	-1.7%
COc1cccc(OCC(O)CN2CCC(C)CC2)c1 (stereo not drawn)	-3.34%
COCCCNC(=O)c1cc2c(C)nn(-c3ccccc3)c2s1	-1.33%
COc1ccccc1/C=C/C=c1\sc2nc(-c3ccc(OC)c(OC)c3)nn2c1=O	2.04%
CC1(C)CC(NC(=O)COc2ccc(Cl)cc2Br)CC(C)(C)N1	-3.06%
CCC1CCC(c2ccc(C(=O)CCN(C)C)cc2)CC1 (stereo not drawn)	4.52%
CC1(C)CC(CCOC(=O)c2cccnc2)CC(C)(C)N1	-0.403%
COc1cccc2cc(NC(=O)c3ccc(C)c(C)c3)c(=O)oc12	2.7%
Cn1cc(C2N3CC4(C)CN2CC(C)(C3)C4=O)c2ccccc21 (stereo not drawn)	1.26%
CC1=CC=CN2C(=O)NC(C(F)(F)F)(C(F)(F)F)N=C12	3.36%
O=C(O)/C=C/C(=O)Nc1cccc(NC(=O)/C=C/C(=O)O)c1	0.505%
CCN(CC)C(=O)Cn1c(=O)n(CCC(=O)NCc2ccc(OC)cc2)c(=O)c2sccc21	-1.21%
COc1cc2c(cc1OC)CN(CC1=CC[C@H]3C[C@@H]1C3(C)C)CC2	-0.603%
COc1cccc(C2NC(=O)c3sc(=S)n(-c4ccccc4)c3N2)c1 (stereo not drawn)	-2.2%
CCSc1ncc(Cl)c(C(=O)Nc2nnc(SCc3ccc(F)cc3)s2)n1	-2.85%
CC1=C(C(=O)Nc2ccccn2)C(c2cccc(Oc3ccccc3)c2)C2=C(O)CC(C)(C)CC2=N1 (stereo not drawn)	-3.9%
Cc1cc(C)n(CNc2nonc2C(=N)NOCc2c(F)cccc2Cl)n1	-3.04%
O=C1CCCc2occ(-c3cccc([N+](=O)[O-])c3)c21	-4.21%
Cc1ccc(C23CC4CC(CC(C(=O)CN5C(=O)c6ccccc6C5=O)(C4)C2)C3)cc1	-0.615%
Cc1cc(C(=O)C2=C(O)C(=O)N(Cc3cccnc3)C2c2ccccc2)ccc1OCC(C)C (stereo not drawn)	1.93%
COc1cc(-c2cc(NC(=O)c3cc4ccc5cccnc5c4[nH]3)on2)cc(OC)c1OC	2.09%
CC1=C(C(=O)Nc2ccc(Cl)cc2)C(c2cccc(F)c2)n2ncnc2N1 (stereo not drawn)	-1.22%

SMILES	% Inhibition @ 10 uM
O=C(O/N=C1/CCSc2ccccc21)c1ccc(Cl)c(Cl)c1	-1.93%
CCCC(=O)Nc1ccc(S(=O)(=O)NC(C)(C)C)cc1	-2.28%
COc1ccc(/C=C2\CCC(C3CCCC3)C2=O)c(OC)c1 (stereo not drawn)	8.9%
COC(=O)c1cc(-c2ccc(N)cc2)nc2ccccc12	-0.833%
CC(C)(C)c1nnc(NCc2ccccc2)nc1O	-4.67%
COc1ccc(C)cc1N(CC(=O)NC1CCCC1)S(=O)(=O)c1ccccc1	-0.46%
C=C(C)Cn1c(CCCNC(=O)Cc2ccccc2)nc2ccccc21	2.17%
Cc1oc(-c2ccccc2F)nc1CS(=O)(=O)CC(=O)N1CCC(Cc2ccccc2)CC1	1.55%
Cc1ccc(N2C(=O)CC(NCCc3ccc(Cl)cc3)C2=O)cc1 (stereo not drawn)	1.95%
O=c1onc(-c2cccs2)n1Cc1cccc(F)c1	5.88%
CC1CCN(S(=O)(=O)c2ccc(NC(=O)c3ccc(-c4ccccc4)cc3)cc2)CC1	2.13%
CCOc1ccc(C(=O)Nc2c3c(nn2-c2ccc(C)cc2C)CS(=O)(=O)C3)cc1OCC	5.35%
CCOc1cc(C2c3sc(O)nc3SC3C4CCC(C4)C23)ccc1O (stereo not drawn)	16.8%
Cc1ccc(N2C(=O)C(Cl)=C(N3CCOCC3)C2=O)cc1Cl	-1.64%
CCCCC(CC)C(C#N)NC(=O)[C@H](CC(C)C)NC(=O)OCc1ccccc1 (stereo partly drawn)	-3.04%
CN1CCN(C(=O)c2cc3nc(-c4ccc(Br)cc4)cc(C(F)(F)F)n3n2)CC1	-4.82%
CCOC(=O)C1=C(C)NC(=O)NC1c1cccc(OC)c1O (stereo not drawn)	4.52%
COc1cccc(C2=CC(c3ccc(F)c(Br)c3)n3ncnc3N2)c1 (stereo not drawn)	0.0842%
CC1CN(Cc2ccc(OC(F)(F)F)cc2)CC(C)O1 (stereo not drawn)	-1.63%
CC(=O)C1=C(C)NC(=O)NC1c1cccc(O)c1 (stereo not drawn)	-5.38%
O=C(c1ccc(F)cc1)N1CCN(Cc2ccc3ccccc3c2)CC1	-7.09%
Cc1ccnc(NC(=O)C2CCC(CNc3c(N4CCC(C)CC4)c(=O)c3=O)CC2)c1 (stereo not drawn)	-5.81%
COc1ccc(OC)c(C2CCN(S(=O)(=O)c3c[nH]cn3)C2)c1 (stereo not drawn)	-1.59%
O=C(N/C(=C\c1ccc(Cl)cc1)C(=O)N1CCCCC1)c1ccccc1	8.6%
O=C(O)/C=C/c1ccc(N2Cc3ccccc3C2)cc1	1.84%

SMILES	% Inhibition @ 10 uM
COc1cc(O)ccc1C1CC(=O)Nc2c1c(C)nn2-c1nc2ccccc2s1 (stereo not drawn)	-6.85%
CC1=C(C(=O)Nc2cccc(F)c2)C(c2cccc(C(F)(F)F)c2)NC(S)=N1 (stereo not drawn)	1.54%
COc1ccc(CC(=O)N2CCC3(CC2)N=C(c2ccc(Cl)cc2)C(=O)N3)cc1	10.7%
CCOC(=O)C1=C(CC)OC(N)=C(C#N)C1c1ccc(Cl)cc1Cl (stereo not drawn)	1.48%
Cc1cccc(C(=O)NC(C)c2ccc3c(c2)OCO3)c1 (stereo not drawn)	-1.04%
CCC(=O)c1ccc(OCC(O)Cn2nnc3ccccc32)cc1 (stereo not drawn)	3.66%
C/C=C/Cn1c(NCc2ccccc2)nc2c1c(=O)[nH]c(=O)n2C	4.31%
Cc1cccc(-n2c(CNC(=O)c3cccs3)nnc2SCC(=O)Nc2nccs2)c1	1.91%
O/N=C1\CCCc2c1[nH]c1ccc(OCc3ccccc3)cc21	-7.88%
CCCc1nc(O)cc2cc(OC)c(OC)cc12	1.72%
Oc1c(C2=NNC(c3ccc(Cl)cc3Cl)C2)ccc2ccccc12 (stereo not drawn)	0.484%
CCN(CC)CCNC(=O)Cn1ncc2c3ccccc3n(Cc3ccccc3)c2c1=O	-1.58%
CC1(C)CC(=O)C(/C=N/c2ccc(Cl)cn2)=C(O)C1	-3.74%
CC1(C)OC(C)(C)C2=C1C=Nc1ccccc1N2	-9.75%
CN(Cc1ccccc1)c1ccc2nnc(-c3ccccc3)n2n1	-3.08%
CCOC(=O)N1CCC(NC(=O)Cn2c3c(c(-c4ccccc4Cl)cc2=O)CCC3)CC1	-2.72%
CCOc1ccc(-c2nnc(-c3ccco3)o2)cc1	1.84%
CCOc1ccc(-c2csc(/C(C#N)=C/c3ccc(Br)o3)n2)cc1	5.77%
Cc1ccc2c(c1)c1c(n2CC(O)Cn2nc(C)cc2C)CCCC1 (stereo not drawn)	0.777%
O=C(NN=C1CCCC1)C(=O)Nc1ccc(F)cc1	-4.41%
Cc1cccc(C(=O)Nc2ccc(F)cc2F)c1	2.13%
COc1ccc(C)cc1NC(=O)CN(c1ccccc1Cl)S(C)(=O)=O	-3.92%
CC(C)C[C@H](NC(=O)c1cc2cc(OCCN3CCOCC3)ccc2o1)C(=O)NC1COCC1=O (stereo partly drawn)	-8.26%
CCOc1ccc2[nH]c(SCC(=O)Nc3ccccc3)nc2c1	-4.75%
O=C(NCC(=O)N1CCCCCC1)c1cccs1	-1.34%

SMILES	% Inhibition @ 10 uM
CCOC(=O)c1cc(S(=O)(=O)NCc2ccc(C)cc2)cn1C	-1.06%
Cn1c(CN2CCN(Cc3ccccc3)CC2)nc(=O)c2ccccc21	-6.52%
OCCOCCN1CCN(CC(c2ccccc2)c2ccccc2)CC1	-4.75%
O=[N+]([O-])c1ccc(CSc2ncnc3c2ncn3C2OC(CO)C(O)C2O)cc1 (stereo not drawn)	1.64%
COc1ccccc1NC(=O)C1=C(C)N=C2CCCC(O)=C2C1c1ccccc1Br (stereo not drawn)	-0.99%
Cc1cccc(Cc2c(C)nc(O)c(C#N)c2C)c1	-3.94%
O=C(CN(c1ccccc1Cl)S(=O)(=O)c1ccccc1)NC1CCCCC1	-0.69%
CCOc1cccc(NC(=O)C2CC(=O)N(c3ccccc3)C2)c1 (stereo not drawn)	-2.83%
Cc1nc2ccccc2c2c1C(=O)N(CCO)C2=O	2.64%
Cc1nc2ccc(S(=O)(=O)NCC(=O)NC3CCCCCC3)cc2s1	0.747%
O=C(O)c1ccc(CN2CCN(c3ccccn3)CC2)cc1	-4.61%
O=C(CC12CC3CC(CC(C3)C1)C2)Nc1cccnc1Cl	-0.171%
Cc1cccc2c(CCN)c[nH]c12	-3.58%
CCOc1ccc(CCNC(=O)c2nn(C)c3c2CSc2ccccc2-3)cc1OCC	3.3%
COc1ccc(-c2cc(C(F)(F)F)nc(SCC(=O)Nc3cccnc3Cl)n2)cc1	2.46%
O=C(CCNc1ccc2ccccc2c1)c1cccc([N+](=O)[O-])c1	-3.52%
N#CC1=C(N)Nc2c(oc(CO)cc2=O)C1c1conc1-c1ccc(F)cc1 (stereo not drawn)	-1.68%
Clc1ccc2nc(NC3CCCCCCC3)c3nncn3c2c1	0.942%
Cc1ccc(O)c(-c2cc(C(F)(F)F)[nH]n2)c1	22.7%
Cc1cc2n(n1)CCCN2C(=O)CCC(=O)N1CCN(C(=O)c2ccco2)CC1	-3.94%
Cc1sc2ncnc(NCc3ccccc3)c2c1C	-2.18%
CC(NC(=O)c1cc(-c2ccc3c(c2)OCO3)on1)c1ccccc1 (stereo not drawn)	-1.84%
O=C1C(Cl)=C(NCCc2ccccc2)C(=O)N1c1ccccc1	-5.48%
C=CCn1c(SCC(=O)NCc2cccnc2)nc2sc3c(c2c1=O)CCC3	-1.64%
